Among all 55,000 compounds or so, about 530 (0.96%) were called active. Inconclusive results, whose numbers are uncertain, are shown with a selection of clear calls. The call rests on the fitted dose curve; in most records, active means well fitted cell-killing curve with a large enough effect; inconclusive means small, poorly fitted or top-dose-only effect; inactive means no such curve, though single readings can be large or run the other way. Where the call is inconclusive, the potency comes from a doubtful curve fit.
experiment: qHTS Screen for Compounds that Selectively Target Cancer Cells with p53 Mutations: Cytotoxicity of p53 Null Cells at the Nonpermissive Temperature; details: H1299 p53-null (neo) cells, 39C, ATPlite viability, 24 h; series mostly up to 46.1 µM; further: nearly all actives have a fitted effect of over 50% in size
How it was run: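 Cells seeded at 600/well, 37C overnight. Compound added (up to 46 uM), plates shifted to 39C for 24 hr. ATPlite added, luminescence read after 20 min at room temperature.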
Potency means the concentration at half of the fitted maximal effect; tags describe the fitted curve by direction and shape.

| Compound | Potency |
| --- | --- |
| COc1ccccc1-c1nnc(Nc2nc3c(OC)cccc3s2)o1 | inconclusive: 10 µM [cytotoxic, partial curve] |
| COc1cc(C2CC(=O)Nc3c2c(=O)[nH]c2nc4ccccc4n32)ccc1O (stereo not drawn) | inactive |
| COC(=O)Cn1c(=O)c2c(nc3n2CCN3c2cccc(C)c2)n(C)c1=O | inconclusive: 0.01 µM [cytotoxic, full curve, poor fit] |
| Cc1ccc(S(=O)(=O)Nc2ccc(-c3cn4ccc(C)cc4n3)cc2)cc1 | inactive |
| CS(=O)(=O)c1ncc(Cl)c(C(=O)N(Cc2ccc(Cl)cc2)Cc2ccco2)n1 | inconclusive: 35.5 µM [cytotoxic, single point] |
| O=C(Cn1c(-c2cccs2)cc2ccccc21)NCCCN1CCN(c2cccc(Cl)c2)CC1 | inconclusive: 35.5 µM [cytotoxic, single point] |
| CCOC(=O)c1cc2c(=O)n3ccccc3nc2n(CC(C)C)c1=NC(=O)C(C)(C)Oc1ccc(Cl)cc1 | inactive |
| COc1ccc(NC(=O)c2cc(=O)c3cc(C)cc(C)c3o2)cc1 | inconclusive: 3.98 µM [cytotoxic, partial curve] |
| CCOc1ccc(CC(=O)NCCc2sc(-c3cccc(F)c3)nc2C)cc1 | inconclusive: 0.282 µM [cytotoxic, full curve] |
| COc1ccc(C2CC(=O)Nc3cc4c(cc32)OCO4)c(OC)c1 (stereo not drawn) | inactive |
| CC(=O)c1ccc(N2CCN(C(=O)Nc3cn(CC(C)C)c(=O)c4ccccc34)CC2)cc1 | inactive |
| COc1ccc(C)cc1Nc1c2c(nc3ccccc13)CCC2 | active: 15.8 µM |
| CCOC(=O)C1CCN(S(=O)(=O)c2cc(-c3cc(C)no3)ccc2OC)CC1 | inactive |
| O=C1c2ccccc2C(=O)N1CCCc1c[nH]c2ccc(Cl)cc12 | inconclusive: 7.94 µM [cytotoxic, single point] |
| CCc1ccc(C2=CC(c3cccc(C)c3)n3c(nc4ccccc43)N2)cc1 (stereo not drawn) | active: 10 µM |
| CC(=O)N1CCCc2cc(S(=O)(=O)N(CCN(C)C)Cc3ccccc3)ccc21 | active: 10 µM |
| CCCOc1cccc(C(=O)Nc2cc(-c3nc4ccccc4[nH]3)ccc2C)c1 | inconclusive: 25.1 µM [cytotoxic, single point] |
| COc1ccc(C(=O)CSc2nc3cc(C(=O)NC4CCCC4)ccc3c(=O)n2CC2CCCO2)cc1 (stereo not drawn) | inconclusive: 0.0251 µM [cytotoxic, full curve, poor fit] |
| Cc1ccccc1NC(=O)Nc1csc2c1CCCC2 | inconclusive: 17.8 µM [cytotoxic, partial curve] |
| CCCCn1c(=O)c2oc3ccccc3c2n(CC(=O)Nc2cc(C)ccc2C)c1=O | inactive |
| COc1ccc(NC(=O)C2=C(C)Nc3ncnn3C2c2sccc2C)cc1 (stereo not drawn) | inconclusive: 0.178 µM [cytotoxic, full curve, poor fit] |
| CC(C)(C)C1CCc2nc(NC(=O)c3cccc(Cl)c3)sc2C1 (stereo not drawn) | inactive |

| Compound | Potency |
| --- | --- |
| COC(=O)c1ccc(OCC2c3cc(OC)c(OC)cc3CCN2C(=O)c2ccc(OC)cc2)cc1 (stereo not drawn) | inactive |
| Cc1cc(-c2ccc(S(=O)(=O)Nc3cccc(C)c3C)s2)on1 | inconclusive: 2.51 µM [cytotoxic, full curve, poor fit] |
| Cn1nnnc1SCCCNCc1cc(Br)ccc1OCc1ccccc1 | inconclusive: 1.26 µM [cytotoxic, full curve, poor fit] |
| Cc1ccc(-c2nc3ccccn3c2Nc2ccc3c(c2)OCCO3)o1 | inactive |
| Cc1c(Cl)cccc1NS(=O)(=O)c1ccc(NS(=O)(=O)c2ccc3c(c2)OCCO3)cc1 | inactive |
| Cc1cn2c(=O)c(S(=O)(=O)Nc3ccc(N4CCOCC4)cc3)c(C)nc2s1 | inconclusive: 2 µM [cytotoxic, partial curve] |
| Cc1ccc(-c2onc(C)c2C)cc1S(=O)(=O)Nc1cccc(Cl)c1C | inactive |
| CCc1ccc(-n2nc(CO)c(C(=O)NCc3cccnc3)n2)cc1 | inconclusive: 31.6 µM [cytotoxic, single point] |
| Cc1ccc(NC(=O)c2sc3nc(-c4ccncc4)ccc3c2N)cc1 | inconclusive: 12.6 µM [cytotoxic, partial curve] |
| O=C(NC1CC1)c1ccc(Cn2c(SCc3ccc(F)cc3)nc3cccnc32)cc1 | inconclusive: 8.91 µM [cytotoxic, partial curve] |
| CCc1cccc(C)c1NC(=O)c1cc(S(=O)(=O)N2CCCCCC2)cn1C | inconclusive: 0.794 µM [cytotoxic, full curve, poor fit] |
| CCOC(=O)c1ccccc1NC(=O)c1cc2c(s1)-c1ccccc1SC2 | inconclusive: 25.1 µM [cytotoxic, single point] |
| CC1=C(c2ccc(Cl)cc2)S(=O)(=O)N=C1N1CCC(C(=O)NCCc2ccco2)CC1 | inactive |
| CCCCC(=O)Nc1c(C(=O)N2CCN(c3ccccc3)CC2)oc2ccccc12 | inconclusive: 31.6 µM [cytotoxic, single point] |
| CCCCCn1c(=O)[nH]c2cc(C(=O)N3CCN(c4cccc(OC)c4)CC3)ccc2c1=O | inactive |
| COc1ccc(C(=O)Nc2c(C(=O)c3ccc(F)cc3)oc3ccccc23)cc1 | inconclusive: 0.0316 µM [cytotoxic, full curve, poor fit] |
| COc1cc(-c2oc3ccc(C)cc3c(=O)c2O)cc(OC)c1OC | inconclusive: 7.94 µM [cytotoxic, partial curve, poor fit] |
| CCn1c(SCC(=O)N/N=C/C=C/c2ccccc2[N+](=O)[O-])nnc1-c1ccccc1 | inconclusive: 28.2 µM [cytotoxic, single point] |
| Cc1ccc(-n2c3c(c(=O)[nH]c2=O)C(NC(=O)c2ccccc2C)(C(F)(F)F)C(=O)N3)cc1 (stereo not drawn) | inconclusive: 0.0045 µM [cytotoxic, full curve, poor fit] |
| Cc1ccc(NC(=O)Cn2c(=O)n(-c3ccccc3)c(=O)c3ccc(C(=O)NCc4ccc5c(c4)OCO5)cc32)c(C)c1 | inconclusive: 10 µM [cytotoxic, single point] |
| COc1ccc(Cc2nc3ccc(C(=O)NCc4ccc(OC)cc4OC)cc3o2)cc1 | inconclusive: 0.447 µM [cytotoxic, full curve] |

Source: PubChem BioAssay AID904 (National Center for Advancing Translational Sciences (NCATS), 2007)
